# Out of some 310,000 compounds screened, about 14,000 (4.5%) showed an effect of 50% or more. Effects have a minus sign here. Some of the results follow.
# Target: human ether-à-go-go-related gene (hERG) potassium channel (human, UniProt Q12809)
# Test: primary screen, population patch clamp on CHO cells stably expressing hERG
# 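Note: peak tail current of the secondary pulse compared with the same well before compound.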
# Sequence of human ether-à-go-go-related gene (hERG) potassium channel (Q12809 whole entry, looked up): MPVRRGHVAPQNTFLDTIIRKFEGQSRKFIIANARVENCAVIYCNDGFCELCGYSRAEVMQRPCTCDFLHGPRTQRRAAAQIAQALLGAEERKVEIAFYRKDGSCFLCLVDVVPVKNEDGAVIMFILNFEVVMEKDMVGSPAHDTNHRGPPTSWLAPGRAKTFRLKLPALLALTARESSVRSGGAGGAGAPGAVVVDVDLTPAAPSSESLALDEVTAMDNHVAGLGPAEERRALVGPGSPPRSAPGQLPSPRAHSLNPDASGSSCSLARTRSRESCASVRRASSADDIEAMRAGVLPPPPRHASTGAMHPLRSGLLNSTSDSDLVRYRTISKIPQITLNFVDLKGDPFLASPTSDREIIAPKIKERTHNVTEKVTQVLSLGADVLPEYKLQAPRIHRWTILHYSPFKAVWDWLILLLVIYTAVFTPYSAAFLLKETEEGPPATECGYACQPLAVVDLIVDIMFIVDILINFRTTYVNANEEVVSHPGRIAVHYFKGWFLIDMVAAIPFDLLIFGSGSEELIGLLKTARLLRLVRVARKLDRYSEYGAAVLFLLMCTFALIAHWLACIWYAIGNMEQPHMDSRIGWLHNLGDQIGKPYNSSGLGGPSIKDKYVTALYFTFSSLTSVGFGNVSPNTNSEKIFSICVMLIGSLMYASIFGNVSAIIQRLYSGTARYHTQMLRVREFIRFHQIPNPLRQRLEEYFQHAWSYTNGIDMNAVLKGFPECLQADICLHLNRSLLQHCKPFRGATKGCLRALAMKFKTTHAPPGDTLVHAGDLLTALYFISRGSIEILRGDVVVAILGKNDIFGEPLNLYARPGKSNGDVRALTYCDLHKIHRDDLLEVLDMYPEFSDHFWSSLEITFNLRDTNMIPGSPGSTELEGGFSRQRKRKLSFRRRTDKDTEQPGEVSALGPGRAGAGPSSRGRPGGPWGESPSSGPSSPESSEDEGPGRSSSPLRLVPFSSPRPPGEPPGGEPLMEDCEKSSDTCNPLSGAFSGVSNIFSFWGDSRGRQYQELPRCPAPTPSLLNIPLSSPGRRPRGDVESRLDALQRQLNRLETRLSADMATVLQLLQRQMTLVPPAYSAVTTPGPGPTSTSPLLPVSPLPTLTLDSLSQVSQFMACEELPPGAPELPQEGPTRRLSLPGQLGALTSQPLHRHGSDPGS
row,SMILES,"hERG current change (%, negative = inhibition) at 10uM"
1,COc1ccc(N2CCN(CCCNC(=O)C3(S(=O)(=O)c4ccc(Cl)cc4)CC3)CC2)cc1,-61.5%
2,Cl.c1cncc(CNCc2ccco2)c1,23.5%
3,C[C@@H]1C=C(C(=O)NCc2ccccc2)O[C@H](OCc2ccc(CO)cc2)C1,3.74%
4,Nc1ccc(-c2cnc3ccccc3n2)cc1,0.217%
5,O=C(CSCC(=O)N1CCOCC1)Nc1nc(-c2ccccc2)cs1,-14.8%
6,C#CCNC(=O)C1=C[C@H](c2coc3ccccc3c2=O)C[C@H](OCc2ccc(CO)cc2)O1,-49.8%
7,N/C(Cn1cncn1)=N\NC(=O)C(=O)Nc1ccc(Cl)cc1Cl,7.64%
8,CC[C@@H](CO)C1CC2NC3CC4(c5ccccc5N(C)[C@@H]24)C(O)C31 (some centres unmarked),-19.6%
9,Fc1ccccc1CNCCc1ccc2c(c1)OCO2,-7.43%
10,CC(C)(C)c1cc(S(=O)(=O)CCc2ccncc2)cc(C(C)(C)C)c1F,18.5%
11,CCCCNc1nnc(CCn2nc(C)c(Br)c2C)s1,-19.5%
12,O=C(Nc1nnc(COc2ccc(Cl)cc2)s1)c1cccs1,-6.91%
13,CSc1ccccc1NC(=O)c1cc2c(=O)n3ccccc3nc2s1,1.31%
14,Cn1c(=O)n(C)c2cc(/C=N/n3cnnc3)ccc21,-3.11%
15,CCOC(=O)c1cc(-c2ccc(OC)cc2)n[nH]1,7.23%
16,CCCc1cc(=O)oc2c(C)c(OCC(=O)Nc3ccccn3)ccc12,-5.2%
17,Cc1cc(OCC(=O)Nc2ccccc2N2CCCCC2)ccc1C(C)C,12.4%
18,c1ccc(C2(c3ccccc3)OCC(Cn3cncn3)O2)cc1 (centres unmarked),-0.819%
19,CCOc1ccc(NC(=O)CN2C(=O)CSC(C)C2=O)cc1 (centres unmarked),12.2%
20,Cl.Clc1ccccc1CN1CCNCC1,1.68%
21,Cc1ccc(S(=O)(=O)N2CCC(C(=O)NCCCN3CCCC3=O)CC2)cc1C,7.98%
22,CCCOc1cc(NCc2ccccc2)c2ncn(C(C)C)c2c1,0.563%
23,COc1ccccc1OCC#CCN1CCCCCC1.O=C(O)C(=O)O,12%
24,Cc1ncc(CO)c(/C=N/N=C/c2ccccc2O)c1O,13.7%
25,Cc1c(=O)n(OCc2ccc(Cl)cc2)c2ccccc2[n+]1[O-],6.09%
26,O=C(O)C(=O)O.O=[N+]([O-])c1cccc(CN2CCN(Cc3ccc(Cl)cc3)CC2)c1,-70.8%

# From PMC4336329 (PLoS ONE, 2015)
